In the supplement of paper PMC8728848:
This is one part of the list.

What was measured:
Test in all cases: glycan array binding signal (z-score within array); higher = stronger binding
Settings in all cases: glycan notation: IUPAC condensed, linker removed
[1] = target: Gal(b1-4)GlcNAc(b1-3)Gal(b1-4)GlcNAc(b1-2)[Gal(b1-4)GlcNAc(b1-3)Gal(b1-4)GlcNAc(b1-6)]Man(a1-6)[Gal(b1-4)GlcNAc(b1-3)Gal(b1-4)GlcNAc(b1-2)Man(a1-3)]Man(b1-4)GlcNAc(b1-4)GlcNAc
Procedure, shortened: (§1)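 From the Consortium for Functional Glycomics database, 3228 arrays were curated, keeping only those whose protein sequence was available. Binding is given as a within-array Z-score averaged across arrays sharing a protein sequence and across linkers. Negative Z-scores can be read as non-binding.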

[2] = target: Gal(b1-4)GlcNAc(b1-3)Gal(b1-4)GlcNAc(b1-2)[Gal(b1-4)GlcNAc(b1-3)Gal(b1-4)GlcNAc(b1-6)]Man(a1-6)[Gal(b1-4)GlcNAc(b1-3)Gal(b1-4)GlcNAc(b1-2)Man(a1-3)]Man(b1-4)GlcNAc(b1-4)[Fuc(a1-6)]GlcNAc
Procedure, shortened: as §1

[3] = target: Gal(b1-4)GlcNAc(b1-3)Gal(b1-4)GlcNAc(b1-3)Gal(b1-4)GlcNAc
Procedure, shortened: as §1

[4] = target: Gal(b1-4)GlcNAc(b1-3)Gal(b1-4)GlcNAc(b1-3)Gal(b1-4)GlcNAc(b1-2)Man(a1-3)[Gal(b1-4)GlcNAc(b1-3)Gal(b1-4)GlcNAc(b1-3)Gal(b1-4)GlcNAc(b1-2)Man(a1-6)]Man(b1-4)GlcNAc(b1-4)GlcNAc
Procedure, shortened: as §1

[5] = target: Gal(b1-4)GlcNAc(b1-3)Gal(b1-4)GlcNAc(b1-3)Gal(b1-4)GlcNAc(b1-2)Man(a1-3)[Gal(b1-4)GlcNAc(b1-3)Gal(b1-4)GlcNAc(b1-3)Gal(b1-4)GlcNAc(b1-2)Man(a1-6)]Man(b1-4)GlcNAc(b1-4)[Fuc(a1-6)]GlcNAc
Procedure, shortened: as §1

[6] = target: Gal(b1-4)GlcNAc(b1-3)Gal(b1-4)GlcNAc(b1-3)Gal(b1-4)GlcNAc(b1-2)[Gal(b1-4)GlcNAc(b1-3)Gal(b1-4)GlcNAc(b1-3)Gal(b1-4)GlcNAc(b1-6)]Man(a1-6)[Gal(b1-4)GlcNAc(b1-3)Gal(b1-4)GlcNAc(b1-3)Gal(b1-4)GlcNAc(b1-2)Man(a1-3)]Man(b1-4)GlcNAc(b1-4)[Fuc(a1-6)]GlcNAc
Procedure, shortened: as §1

[7] = target: Gal(b1-4)GlcNAc(b1-3)Gal(b1-4)GlcNAc(b1-3)Gal(b1-4)GlcNAc(b1-3)Gal(b1-4)GlcNAc(b1-2)Man(a1-3)[Gal(b1-4)GlcNAc(b1-3)Gal(b1-4)GlcNAc(b1-3)Gal(b1-4)GlcNAc(b1-3)Gal(b1-4)GlcNAc(b1-2)Man(a1-6)]Man(b1-4)GlcNAc(b1-4)GlcNAc
Procedure, shortened: as §1

[8] = target: Gal(b1-4)GlcNAc(b1-3)Gal(b1-4)GlcNAc(b1-3)Gal(b1-4)GlcNAc(b1-3)Gal(b1-4)GlcNAc(b1-2)Man(a1-3)[Gal(b1-4)GlcNAc(b1-3)Gal(b1-4)GlcNAc(b1-3)Gal(b1-4)GlcNAc(b1-3)Gal(b1-4)GlcNAc(b1-2)Man(a1-6)]Man(b1-4)GlcNAc(b1-4)[Fuc(a1-6)]GlcNAc
Procedure, shortened: as §1

[9] = target: Gal(b1-4)GlcNAc(b1-3)Gal(b1-4)GlcNAc(b1-3)Gal(b1-4)GlcNAc(b1-3)Gal(b1-4)GlcNAc(b1-2)[Gal(b1-4)GlcNAc(b1-3)Gal(b1-4)GlcNAc(b1-3)Gal(b1-4)GlcNAc(b1-3)Gal(b1-4)GlcNAc(b1-6)]Man(a1-6)[Gal(b1-4)GlcNAc(b1-3)Gal(b1-4)GlcNAc(b1-3)Gal(b1-4)GlcNAc(b1-3)Gal(b1-4)GlcNAc(b1-2)Man(a1-3)]Man(b1-4)GlcNAc(b1-4)[Fuc(a1-6)]GlcNAc
Procedure, shortened: as §1

[10] = target: Gal(b1-4)GlcNAc(b1-3)Gal(b1-4)GlcNAc(b1-3)Gal(b1-4)GlcNAc(b1-3)Gal(b1-4)GlcNAc(b1-3)Gal(b1-4)GlcNAc(b1-2)Man(a1-3)[Gal(b1-4)GlcNAc(b1-3)Gal(b1-4)GlcNAc(b1-3)Gal(b1-4)GlcNAc(b1-3)Gal(b1-4)GlcNAc(b1-3)Gal(b1-4)GlcNAc(b1-2)Man(a1-6)]Man(b1-4)GlcNAc(b1-4)GlcNAc
Procedure, shortened: as §1

[11] = target: Gal(b1-4)GlcNAc(b1-3)Gal(b1-4)GlcNAc(b1-3)Gal(b1-4)GlcNAc(b1-3)Gal(b1-4)GlcNAc(b1-3)Gal(b1-4)GlcNAc(b1-2)Man(a1-3)[Gal(b1-4)GlcNAc(b1-3)Gal(b1-4)GlcNAc(b1-3)Gal(b1-4)GlcNAc(b1-3)Gal(b1-4)GlcNAc(b1-3)Gal(b1-4)GlcNAc(b1-2)Man(a1-6)]Man(b1-4)GlcNAc(b1-4)[Fuc(a1-6)]GlcNAc
Procedure, shortened: as §1

[12] = target: Gal(b1-4)GlcNAc(b1-3)Gal(b1-4)GlcNAc(b1-3)Gal(b1-4)GlcNAc(b1-3)Gal(b1-4)GlcNAc(b1-3)Gal(b1-4)GlcNAc(b1-2)[Gal(b1-4)GlcNAc(b1-3)Gal(b1-4)GlcNAc(b1-3)Gal(b1-4)GlcNAc(b1-3)Gal(b1-4)GlcNAc(b1-3)Gal(b1-4)GlcNAc(b1-6)]Man(a1-6)[Gal(b1-4)GlcNAc(b1-3)Gal(b1-4)GlcNAc(b1-3)Gal(b1-4)GlcNAc(b1-3)Gal(b1-4)GlcNAc(b1-3)Gal(b1-4)GlcNAc(b1-2)Man(a1-3)]Man(b1-4)GlcNAc(b1-4)[Fuc(a1-6)]GlcNAc
Procedure, shortened: as §1

[13] = target: Gal(b1-4)GlcNAc(b1-3)Gal(b1-4)GlcNAc(b1-3)Gal(b1-4)GlcNAc(b1-3)Gal(b1-4)GlcNAc(b1-3)Gal(b1-4)GlcNAc(b1-3)Gal(b1-4)GlcNAc(b1-2)Man(a1-3)[Gal(b1-4)GlcNAc(b1-3)Gal(b1-4)GlcNAc(b1-3)Gal(b1-4)GlcNAc(b1-3)Gal(b1-4)GlcNAc(b1-3)Gal(b1-4)GlcNAc(b1-3)Gal(b1-4)GlcNAc(b1-2)Man(a1-6)]Man(b1-4)GlcNAc(b1-4)GlcNAc
Procedure, shortened: as §1

[14] = target: Gal(b1-4)GlcNAc(b1-3)Gal(b1-4)GlcNAc(b1-3)GalNAc
Procedure, shortened: as §1

[15] = target: Gal(b1-4)GlcNAc(b1-3)Gal(b1-4)GlcNAc(b1-3)[Gal(b1-4)GlcNAc(b1-3)Gal(b1-4)GlcNAc(b1-6)]GalNAc
Procedure, shortened: as §1

[16] = target: Gal(b1-4)GlcNAc(b1-3)Gal(b1-4)GlcNAc(b1-6)[Gal(b1-3)]GalNAc
Procedure, shortened: as §1

[17] = target: Gal(b1-4)GlcNAc(b1-3)Gal(b1-4)[Fuc(a1-3)]GlcNAc(b1-3)Gal(b1-4)[Fuc(a1-3)]GlcNAc
Procedure, shortened: as §1

[18] = target: Gal(b1-4)GlcNAc(b1-3)GalNAc
Procedure, shortened: as §1

[19] = target: Gal(b1-4)GlcNAc(b1-3)[Fuc(a1-3)GlcNAc(b1-6)]Gal(b1-4)Glc
Procedure, shortened: as §1

[20] = target: Gal(b1-4)GlcNAc(b1-3)[Gal(b1-4)GlcNAc(b1-6)]Gal(b1-4)GlcNAc
Procedure, shortened: as §1

[21] = target: Gal(b1-4)GlcNAc(b1-3)[GlcNAc(b1-6)]Gal(b1-4)GlcNAc
Procedure, shortened: as §1

[22] = target: Gal(b1-4)GlcNAc(b1-6)Gal(b1-4)GlcNAc
Procedure, shortened: as §1

[23] = target: Gal(b1-4)GlcNAc(b1-6)GalNAc
Procedure, shortened: as §1

[24] = target: Gal(b1-4)GlcNAc(b1-6)[Gal(b1-3)]GalNAc
Procedure, shortened: as §1

[25] = target: Gal(b1-4)GlcNAc(b1-6)[Gal(b1-4)GlcNAc(b1-3)]GalNAc
Procedure, shortened: as §1

Gal(b1-4)GlcNAc6P = target: Gal(b1-4)GlcNAc6P
Procedure, shortened: as §1

Gal(b1-6)Gal = target: Gal(b1-6)Gal
Procedure, shortened: as §1

Gal3S(b1-3)GalNAc = target: Gal3S(b1-3)GalNAc
Procedure, shortened: as §1

Gal3S(b1-3)GlcNAc = target: Gal3S(b1-3)GlcNAc
Procedure, shortened: as §1

[26] = target: Gal3S(b1-3)[Fuc(a1-4)]GlcNAc
Procedure, shortened: as §1

B1: PX9896A-bth-573-26-573 (Bacteroides thetaiotaomicron) (protein)
chain: ETNNLKTKEDMYKYFGTSKSMLTHVYSYMPQGYQLFATSGGIFTEDRYSMRDCASDDGEFGAYADNIQNTNNGNWSPIKTYDDSWTLYRGIRAANSFIAEIAQVDFTRYEHDGQYTNWMKQLKYFPYEARVLRAHYFFELARRYGDIAMPLEVLTEEEANTIGKTPFSEVISFIVSECDDAANNLPDSYVNEPGAEIGRVTKGFAMAVKSKALLYAASKLHNPSMDTELWKKSAKAAIDIINTGLYSLDPQESANNLDSKEVVLMRINGDDSDFEMFNLPLRMTAGTRTSSLIPYSNYPSQNLVDAFETVNGYKVTLENTGWVCEDPAFDPQSPYENRDKRFYRAILANGMSFKDYTIETFKGGADDGIVSQGGSPTGYFLRKYIQEATSFEPGKEAVSKHHWVIYRYAETLLTYAESMVNAFNDVNYTDETYKYSALWAINEVRKNADMPLIPSMGKDEFMERLYNEWRVEFAFEDHRFWDVRRWKIADTTQRELYGVKIEKQADGTFNFYKNLYETRNWRDCMYLYPIPQSELYKNTNLNPQNTGW
glycan array binding signal (z-score) [1]: 5.18
glycan array binding signal (z-score) [2]: 0.225
glycan array binding signal (z-score) [3]: 0.232
glycan array binding signal (z-score) [4]: 0.49
glycan array binding signal (z-score) [5]: 0.647
glycan array binding signal (z-score) [6]: -0.033
glycan array binding signal (z-score) [7]: 0.219
glycan array binding signal (z-score) [8]: 0.667
glycan array binding signal (z-score) [9]: 0.196
glycan array binding signal (z-score) [10]: 0.845
glycan array binding signal (z-score) [11]: 0.341
glycan array binding signal (z-score) [12]: 1.16
glycan array binding signal (z-score) [13]: -0.316
glycan array binding signal (z-score) [14]: -0.719
glycan array binding signal (z-score) [15]: 0.442
glycan array binding signal (z-score) [16]: -0.642
glycan array binding signal (z-score) [17]: -0.511
glycan array binding signal (z-score) [18]: -0.069
glycan array binding signal (z-score) [19]: -0.223
glycan array binding signal (z-score) [20]: 0.24
glycan array binding signal (z-score) [21]: -0.083
glycan array binding signal (z-score) [22]: -0.678
glycan array binding signal (z-score) [23]: -0.209
glycan array binding signal (z-score) [24]: 0.712
glycan array binding signal (z-score) [25]: 0.191
glycan array binding signal (z-score) (Gal(b1-4)GlcNAc6P): -0.297
glycan array binding signal (z-score) (Gal(b1-6)Gal): -0.438
glycan array binding signal (z-score) (Gal3S(b1-3)GalNAc): -0.772
glycan array binding signal (z-score) (Gal3S(b1-3)GlcNAc): 0.035
glycan array binding signal (z-score) [26]: -0.446
